From PubChem BioAssay (NCATS)
Inconclusive results, whose numbers are uncertain, are shown with a selection of clear calls. For some of these results: Potencies of inconclusive entries are doubtful fits and often do not repeat. For some of these results: “Side channel” marks fits to a control or component signal instead of the main read-out. Activity calls are given as the source filed them. Unless noted, calls come from the whole dose curve; as a rule, active = well fitted curve in the direction sought with a large enough effect; inconclusive = small, poorly fitted or top-dose-only effect, or another doubt; inactive = no such curve, though single readings can be large; an effect the other way counts as inactive or inconclusive.

Columns and labels:
[1] = High Content Imaging Cell-Based qHTS for Inhibitors of the mTORC1 Signaling Pathway in MEF Cells (AID 2667); note: potency is the fitted concentration of half-maximal effect;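 for activity change, negative = inhibition: Tsc2-/- p53-/- MEFs stably re-expressing wild-type Tsc2 exposed 24 h; plate controls were DMSO wells for no effect and rapamycin control wells for full effect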
Method in brief: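 Fixed-cell imaging of phospho-S6 (Ser235/236, Alexa-488) after 24 hrs of compound treatment at 37 degree Celsius. Signal was normalized to Hoechst, and thresholds from the highest and lowest wells split cells into % active versus % non-active.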

[2] = qHTS to identify inhibitors of the type 1 interferon - major histocompatibility complex class I in skeletal muscle: primary screen against the NCATS LOPAC collection (AID 1347405); conditions: iHSKM muscle cells, IFN-b-induced MHC-I HiBiT luminescence, 24 h; activity change, negative = inhibition: at 45.9 µM (top of the series);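 note: human myoblasts with HiBiT tag on endogenous HLA-B stimulated by IFN-beta; lytic HiBiT luminescence reporting HLA-B protein level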; note: potency is the fitted concentration of half-maximal effect; for activity change, negative = inhibition: % is set by controls: 0 for no effect and ±100 for the full control effect
Method in brief: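 IFN-beta-stimulated (4 ng/ml) HLA-B HiBiT knock-in myoblasts, compound-treated 24 hrs up to 46 uM final; signal via LgBiT complementation and furimazine luminescence.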

[3] = Validation of Assay for Modulators of Lamin A Splicing (AID 1459; active = well fitted curve in the direction sought with a large enough effect in the signal ratio; inconclusive = small, poorly fitted or top-dose-only effect, or effect the other way, or a change in a side signal; inactive = no such curve, though single readings can be large or run the other way; the % refers to the signal ratio; note: potency is the fitted concentration of half-maximal effect;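 for ratio change, both ways: cells exposed to compound for two days before reading; 0% is about no effect; ratio rise marks activators and ratio drop marks inhibitors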); conditions: Lamin A splicing dual RFP/GFP fluorescence reporter; Potency: ratio unless noted; ratio change, both ways: at 9.22 µM unless noted
Method in brief: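 S3 HeLa stably expressing lamin A-EGFP splicing minigene and DsRed2, 600 cells/well in Opti-MEM with 2% FBS, treated 48 h at 37C; laser-scanning cytometry gives GFP/RFP total intensity ratio; ancitabine positive control, 0.5% DMSO vehicle.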

Papain (Carica papaya) = Papain (Carica papaya) (UniProt P00784); experiment: Primary qHTS assay for inhibitors of the protease papain (AID 1645873);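 note: papain turnover of Z-FR-AMC read as the AMC fluorescence gain over 10 min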; note: potency is the fitted concentration of half-maximal effect; for activity change, negative = inhibition: % is set by controls: 0 for no effect and ±100 for the full control effect
Sequence of UniProt P00784 (P00784 whole entry, looked up): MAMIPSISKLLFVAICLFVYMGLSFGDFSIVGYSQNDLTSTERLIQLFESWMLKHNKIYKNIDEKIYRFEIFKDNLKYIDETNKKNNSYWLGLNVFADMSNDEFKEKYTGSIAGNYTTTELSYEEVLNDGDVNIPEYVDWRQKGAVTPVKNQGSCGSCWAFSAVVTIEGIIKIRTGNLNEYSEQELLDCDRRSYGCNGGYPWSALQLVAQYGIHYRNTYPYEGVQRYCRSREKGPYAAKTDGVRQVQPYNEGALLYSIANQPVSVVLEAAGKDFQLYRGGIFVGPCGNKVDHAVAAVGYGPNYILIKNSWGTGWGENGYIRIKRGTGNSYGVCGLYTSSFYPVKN

[4] = Nrf2 qHTS screen for inhibitors: Validation (AID 493153; active = well fitted inhibition curve with a large enough effect in the main read-out, with a control signal flat, not every such curve was filed as active; inconclusive = small, poorly fitted or top-dose-only effect, or effect the other way, or a change in a side signal; inactive = no such curve, though single readings can be large or run the other way; note: potency is the fitted concentration of half-maximal effect;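 for activity change, negative = inhibition: A549 cells with ARE-driven firefly luciferase reporter reporting Nrf2 activity; % of control where 0% means no effect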)
Method in brief: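 In this counterscreened reporter format, each well gives two signals: CellTiter-Fluor fluorescence for cytotoxicity and ARE-luciferase luminescence for Nrf2 function. A549 ARE_Fluc cells in 5% FBS OPTI-MEM were exposed to compound titrations for 18-24 h.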

[5] = target: Transient receptor potential cation channel subfamily V member 1 (Homo sapiens) (UniProt Q8NER1); experiment: HTS Assay for Compounds that Act as Enhancers of the Vanilloid Receptor 1 (AID 488979); note: 0% is about no effect
Sequence of UniProt Q8NER1 (Q8NER1 whole entry, looked up): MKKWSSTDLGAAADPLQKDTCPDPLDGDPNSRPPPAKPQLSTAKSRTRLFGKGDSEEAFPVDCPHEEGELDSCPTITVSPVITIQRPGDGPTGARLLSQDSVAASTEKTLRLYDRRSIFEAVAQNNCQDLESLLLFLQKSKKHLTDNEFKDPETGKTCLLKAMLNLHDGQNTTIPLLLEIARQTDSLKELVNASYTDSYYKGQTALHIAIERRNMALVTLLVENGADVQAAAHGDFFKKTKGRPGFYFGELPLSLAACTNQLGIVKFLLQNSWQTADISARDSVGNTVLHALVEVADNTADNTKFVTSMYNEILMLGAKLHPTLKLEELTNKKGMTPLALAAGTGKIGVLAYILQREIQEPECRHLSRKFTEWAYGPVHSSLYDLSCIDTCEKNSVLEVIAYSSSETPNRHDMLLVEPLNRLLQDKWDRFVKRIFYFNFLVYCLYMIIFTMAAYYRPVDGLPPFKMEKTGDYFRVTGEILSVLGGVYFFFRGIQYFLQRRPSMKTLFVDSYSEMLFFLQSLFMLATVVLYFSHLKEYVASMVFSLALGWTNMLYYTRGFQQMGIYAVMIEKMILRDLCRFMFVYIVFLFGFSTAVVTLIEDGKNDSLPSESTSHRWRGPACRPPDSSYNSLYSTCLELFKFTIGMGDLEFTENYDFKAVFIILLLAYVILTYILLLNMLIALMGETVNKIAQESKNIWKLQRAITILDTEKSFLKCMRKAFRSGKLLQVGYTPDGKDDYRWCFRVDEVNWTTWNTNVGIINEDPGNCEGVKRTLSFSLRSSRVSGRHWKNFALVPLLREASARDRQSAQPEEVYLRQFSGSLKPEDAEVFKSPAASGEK
Method in brief: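 TRPV1-expressing cells loaded with Fluo-8 calcium dye; compounds added and calcium influx read kinetically for 3 min (agonist phase), then capsaicin at EC20 added and read 2 min more for enhancement. Fluorescence ex 480/em 520 nm.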

[6] = target: Calcium and integrin-binding protein 1 (Homo sapiens) (UniProt Q99828); experiment: Validation qHTS for Identification of Calcium Integrin Binding protein 1 (CIB1) Competitor (AID 1508618); note: % is set by controls: 0 for no effect and ±100 for the full control effect
Sequence of UniProt Q99828 (Q99828 whole entry, looked up): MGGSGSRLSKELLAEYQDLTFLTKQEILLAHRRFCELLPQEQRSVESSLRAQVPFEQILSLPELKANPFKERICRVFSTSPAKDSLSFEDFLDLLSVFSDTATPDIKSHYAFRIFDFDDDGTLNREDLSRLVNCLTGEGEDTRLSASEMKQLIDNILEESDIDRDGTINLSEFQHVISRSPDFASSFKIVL
Method in brief: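 CIB1-GST (1 uM final) in 5 mM HEPES pH 7.4, 125 mM NaCl, 5 mM CaCl2, 0.01% Tween20 was preincubated 15 min at room temperature with compound (up to 114 uM), then FITC-alphaIIb peptide (100 nM) added for 15 min; fluorescence polarization read.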

[7] = target: Thioredoxin reductase 1, cytoplasmic (Rattus norvegicus) (UniProt O89049); experiment: qHTS Assay for Substrates of Mammalian Selenoprotein Thioredoxin Reductase 1 (TrxR1) (AID 488772);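 note: a drop in NADPH fluorescence below the no-compound background marks a TrxR1 substrate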; note: potency is the fitted concentration of half-maximal effect
Sequence of UniProt O89049 (O89049 whole entry, looked up): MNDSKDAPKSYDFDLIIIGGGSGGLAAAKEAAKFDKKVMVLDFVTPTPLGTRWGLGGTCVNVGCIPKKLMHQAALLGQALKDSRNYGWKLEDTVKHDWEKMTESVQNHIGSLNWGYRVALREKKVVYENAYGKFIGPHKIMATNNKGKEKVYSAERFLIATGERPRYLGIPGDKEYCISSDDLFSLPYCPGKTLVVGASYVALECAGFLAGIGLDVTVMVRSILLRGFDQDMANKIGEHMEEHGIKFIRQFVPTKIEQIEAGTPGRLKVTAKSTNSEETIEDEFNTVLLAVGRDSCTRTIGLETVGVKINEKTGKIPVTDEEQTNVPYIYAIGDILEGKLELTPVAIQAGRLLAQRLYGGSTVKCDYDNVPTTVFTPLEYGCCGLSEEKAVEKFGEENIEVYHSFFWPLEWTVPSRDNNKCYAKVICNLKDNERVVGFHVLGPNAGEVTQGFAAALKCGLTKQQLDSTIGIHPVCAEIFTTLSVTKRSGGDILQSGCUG
Method in brief: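 In this dual-purpose format, potential substrates are identified from the first fluorescence read after selenite addition, not from the 8-minute delta. Rat enzyme is preincubated with NADPH and then with compound at ~22 deg C.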

[8] = target: Thioredoxin reductase 1, cytoplasmic (Rattus norvegicus) (UniProt O89049); experiment: qHTS Assay for Inhibitors of Mammalian Selenoprotein Thioredoxin Reductase 1 (TrxR1) (AID 488773); conditions: Potency: inhibition; note: nearly all actives have a fitted effect of over 40% in size; note: potency is the fitted concentration of half-maximal effect
Method in brief: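 Inhibition is scored from the loss of NADPH fluorescence between first and last reads of an 8-min kinetic run. Selenite (400 uM) was the substrate, added after 15 min compound preincubation at room temperature.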

[9] = target: M-phase phosphoprotein 8 (Homo sapiens) (UniProt Q99549); experiment: qHTS Validation Assay for Inhibitors for MPP8 Chromodomain Interactions with Methylated Histone Tails (AID 488949); conditions: AlphaScreen MPP8 binding to H3K9me3 peptide; activity change, negative = inhibition: at 57.1 µM (top of the series) unless noted; note: nearly all actives have a fitted effect of over 55% in size; note: potency is the fitted concentration of half-maximal effect; for activity change, negative = inhibition: top concentration of the series differs between compounds; % is set by controls: 0 for no effect and ±100 for the full control effect
Sequence of UniProt Q99549 (Q99549 whole entry, looked up): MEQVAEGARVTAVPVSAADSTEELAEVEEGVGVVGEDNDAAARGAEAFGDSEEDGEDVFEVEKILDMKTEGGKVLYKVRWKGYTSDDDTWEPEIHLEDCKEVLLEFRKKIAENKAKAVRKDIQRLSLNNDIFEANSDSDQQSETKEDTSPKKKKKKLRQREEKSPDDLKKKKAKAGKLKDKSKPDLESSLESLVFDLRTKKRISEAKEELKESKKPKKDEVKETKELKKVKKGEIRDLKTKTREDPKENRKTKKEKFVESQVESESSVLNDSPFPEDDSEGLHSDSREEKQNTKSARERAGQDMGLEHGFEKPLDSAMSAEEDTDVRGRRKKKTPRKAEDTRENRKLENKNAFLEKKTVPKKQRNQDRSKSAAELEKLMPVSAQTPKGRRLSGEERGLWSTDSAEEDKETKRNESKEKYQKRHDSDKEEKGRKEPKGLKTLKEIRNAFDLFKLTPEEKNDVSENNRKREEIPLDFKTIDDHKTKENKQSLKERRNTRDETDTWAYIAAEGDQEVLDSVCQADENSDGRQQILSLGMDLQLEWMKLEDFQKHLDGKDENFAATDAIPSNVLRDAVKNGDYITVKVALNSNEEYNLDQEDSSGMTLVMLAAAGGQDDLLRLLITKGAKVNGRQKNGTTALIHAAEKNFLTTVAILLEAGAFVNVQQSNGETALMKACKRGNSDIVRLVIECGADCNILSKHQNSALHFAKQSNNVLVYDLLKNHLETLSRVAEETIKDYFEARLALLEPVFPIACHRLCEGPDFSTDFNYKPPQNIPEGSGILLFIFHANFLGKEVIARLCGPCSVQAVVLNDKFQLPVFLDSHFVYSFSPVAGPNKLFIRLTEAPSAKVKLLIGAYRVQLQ
Method in brief: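 MPP8 (50 nM) was pre-bound to 50 nM biotinylated H3(1-18)K9me3 peptide in PBS pH 7.4 with 0.01% Tween-20. Compounds were then added for 30 min at room temperature, and complex disruption was read by AlphaScreen with streptavidin donor and nickel-chelate acceptor beads.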

[10] = target: Peptidyl-prolyl cis-trans isomerase NIMA-interacting 1 (Homo sapiens) (UniProt Q13526); experiment: qHTS Validation Assay to Find Inhibitors of Pin1 (AID 504536; active = well fitted inhibition curve with a large enough effect in the polarisation, with a control signal flat, not every such curve was filed as active; inconclusive = small, poorly fitted or top-dose-only effect, or effect the other way; the % refers to the polarisation; note: potency is the fitted concentration of half-maximal effect)
Sequence of UniProt Q13526 (Q13526 whole entry, looked up): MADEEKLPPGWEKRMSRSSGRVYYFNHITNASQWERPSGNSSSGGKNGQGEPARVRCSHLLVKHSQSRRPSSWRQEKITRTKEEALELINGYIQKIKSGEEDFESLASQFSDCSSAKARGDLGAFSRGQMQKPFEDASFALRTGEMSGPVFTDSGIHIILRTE
Method in brief: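 Fluorescence polarization competition: compounds (titration) displace HiFluor-488-labeled Pin1-1b peptide from Pin1 (0.3 uM final) in pH 7.5 HEPES buffer with DTT, 10 min at room temperature; %Activity normalized to no-enzyme wells, curves fitted.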

[11] = Primary qHTS for inhibitors of La Crosse Virus (LACV) - induced cell death in SH-SY5Y cells (AID 1508616); note: potency is the fitted concentration of half-maximal effect;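 for activity change: top concentration of the series differs between compounds; 0% = infected DMSO wells and 100% = uninfected DMSO wells; higher means more rescue of cells from virus-induced death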
Method in brief: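 Screening measures cell viability in LACV-infected SH-SY5Y cultures. Compound was added before virus (0.01 MOI), and ATP was detected by luminescence 6 days later.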

[12] = qHTS Assay for Identification of Small Molecule Agonists for Hypoxia Response Element Signaling Pathway (AID 914; active = well fitted activation curve with a large enough effect in the signal ratio, with a control signal flat, not every such curve was filed as active; inconclusive = small, poorly fitted or top-dose-only effect, or effect the other way, or a change in a side signal; the % refers to the signal ratio; note: potency is the fitted concentration of half-maximal effect); conditions: ME-180 HRE-bla reporter, beta-lactamase ratio, CoCl2, 17 h; activation: stronger effect = higher value
Method in brief: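 ME-180 cells carrying an HRE-driven beta-lactamase reporter were treated with compounds in a titration series plus an EC50 level of CoCl2 for 17 h at 37 degrees Celsius; CCF4 readout as the 460nm/530nm ratio gave AC50 values.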

[13] = Validation screen for small molecules that induce DNA re-replication in SW480 colon adenocarcinoma cells (AID 504364); note: potency is the fitted concentration of half-maximal effect
Method in brief: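 Hoechst-stained SW480 nuclei, imaged at 405 nm excitation after 48 hr compound exposure, were counted for elevated DNA content as the re-replication signal.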

[14] = qHTS for Activators of Parkin Expression: LOPAC Validation Assay (FLuc Reporter) (AID 720573; note: potency is the fitted concentration of half-maximal effect;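 for activation: 0% = DMSO and 100% = positive control compounds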)
Method in brief: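 Neuronal cell line stably expressing FLuc/NLuc coincidence reporter under the Parkin promoter, 1,500 cells/well, dosed 24 h after seeding in 7-point series for 24 h at 37 C. FLuc luminescence read; normalized to DMSO and positive control (100%).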

[15] = qHTS Assay for Modulators of Human Peripheral Myelin Protein 22 (PMP22) Expression/Activity (AID 1967; active = well fitted curve in the direction sought with a large enough effect in the signal ratio; inconclusive = small, poorly fitted or top-dose-only effect, or effect the other way, or a change in a side signal; inactive = no such curve, though single readings can be large or run the other way; the % refers to the signal ratio; note: potency is the fitted concentration of half-maximal effect;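 for activity change (ratio): 0% = untreated cells and 100% end not stated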); conditions: Cell-based PMP22 reporter, dual-color luciferase ratio, mouse Pmp22 promoter in mouse Schwann cells; activity change (ratio): at 115 µM (top of the series), 0% = compound-free control cells
Method in brief: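 Mouse MSC80 Schwann cells carrying Pmp22 promoter–green click beetle luciferase plus EF-alpha–red luciferase control, dosed 24 h at 37 °C. Dual-filter luminescence, overlap-corrected; %Activity from green/red ratio normalised to untreated cells, concentration-response curves fitted.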

[16] = target: D(1A) dopamine receptor (Homo sapiens) (UniProt P21728); experiment: HTS Assay for Allosteric Agonists of the Human D1 Dopamine Receptor: Primary Screen for Potentiators (AID 488982); note: potency is the fitted concentration of half-maximal effect
Sequence of UniProt P21728 (P21728 whole entry, looked up): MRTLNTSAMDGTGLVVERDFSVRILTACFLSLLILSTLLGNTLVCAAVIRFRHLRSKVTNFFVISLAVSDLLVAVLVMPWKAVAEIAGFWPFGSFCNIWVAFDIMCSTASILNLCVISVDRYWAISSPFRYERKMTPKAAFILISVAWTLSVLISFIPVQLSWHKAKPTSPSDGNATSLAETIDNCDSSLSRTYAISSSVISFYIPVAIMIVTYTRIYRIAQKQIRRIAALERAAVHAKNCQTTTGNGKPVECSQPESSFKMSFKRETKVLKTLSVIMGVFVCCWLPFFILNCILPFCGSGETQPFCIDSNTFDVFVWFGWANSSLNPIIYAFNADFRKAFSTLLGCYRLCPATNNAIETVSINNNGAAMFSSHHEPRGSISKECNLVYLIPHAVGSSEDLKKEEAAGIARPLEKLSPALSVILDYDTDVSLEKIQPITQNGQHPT
Method in brief: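 Tetracycline-induced HEK293 T-REx cells force-coupled to calcium signalling were incubated overnight at 30 C and dye-loaded at room temperature. Calcium flux over 180 s after compound addition flagged agonists; a further 180 s read after EC20 dopamine flagged potentiators.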

[17] = qHTS Validation Assay to Find Inhibitors of Chronic Active B-Cell Receptor Signaling (AID 485345; active = well fitted curve in the direction sought with a large enough effect in the main read-out, with a control signal flat, not every such curve was filed as active; inconclusive = small, poorly fitted or top-dose-only effect, or effect the other way, or a change in a side signal; inactive = no such curve, though single readings can be large or run the other way;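 note: 0% = untreated basal cells and 100% = 10 µM MG-132 proteasome inhibitor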); conditions: ABC-DLBCL cells, chronic BCR signaling reporter; activity change: CBG luciferase, at 46.1 µM (top of the series)
Method in brief: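 TMD8 ABC-DLBCL cells with dox-inducible green luciferase–IκBα fusion and red native luciferase; compounds 46 uM–3 nM, 4 h at 37C with doxycycline in 0.5% FBS IMDM. Green/red ratio normalized to basal and 10 uM MG-132.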

[18] = qHTS for Activators of Parkin Expression: LOPAC Validation Assay (NLuc Reporter) (AID 720572; note: potency is the fitted concentration of half-maximal effect)
Method in brief: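 Cells harboring the Parkin-promoter coincidence reporter were treated for 24 h at seven concentrations. NLuc output was measured sequentially after the FLuc channel and scaled between DMSO and positive control values.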
Tags give direction and shape of the fitted curve or compound fluorescence and quenching.

With `COc1ccc2c(c1)CCC1C2CC[C@@]2(C)C1CC[C@@H]2NCCCCCCN1C(=O)CCC1=O` (stereo not given in full) as the compound, how does the Potency [1] read?
Its Potency is active: 3.69 µM.

What about the Potency [2] of the same compound?
The Potency was “inactive”.

Which ratio change, both ways [3] does the source give for `COc1cccc(C(=O)NCCN2CCN(c3ccc(Cl)cc3)CC2)c1` here?
Its ratio change, both ways is inactive: -14.7%.

With `CC(=O)C(C)=O` as the compound, how does the Potency (Papain (Carica papaya)) read?
Its Potency is “inactive”.

For `C=CCNc1ncnc2ccc(Br)cc12`, which Potency [4] is on record?
Its Potency is inconclusive: 18.4 µM [inhibitor, partial curve, poor fit].

And the Potency [2]?
The Potency was inconclusive: 28.2 µM [inhibitor, partial curve].

Which Potency [5] does the source give for `Nn1nnc2ccccc21` here?
The Potency was “inactive”.

And the Potency [6]?
The Potency was “inactive”.

Which Potency [7] does the source give for `Oc1cc2c(c(Cl)c1O)CCNCC2c1ccccc1` (stereo not given) here?
Its Potency is “inactive”.

And the Potency [8]?
The Potency was inconclusive: 23.8 µM [inhibitor, partial curve].

What about the Potency [9] of the same compound?
Its Potency is inconclusive: 79.4 µM [inhibitor, single point].

With `CCCN(CC1CC1)c1nc(C)nc(Nc2c(Cl)cc(Cl)cc2Cl)c1Cl` as the compound, how does the ratio change, both ways [3] read?
The ratio change, both ways was inconclusive: 4.56%.

Which ratio change, both ways [3] does the source give for `CCCCCCCCCCCCCCSCC(=O)O` here?
Its ratio change, both ways is inconclusive: 41% [at 46.1 µM].

What about the Potency [4] of the same compound?
The Potency was “inactive”.

And the Potency [10]?
The Potency was active: 23.9 µM.

What about the Potency [11] of the same compound?
The Potency was “inactive”.

For `COc1ccccc1N1CCN(CCCCNS(=O)(=O)c2cccc3c(N(C)C)cccc23)CC1`, which Potency [12] is on record?
The Potency was inconclusive: 15.8 µM [inhibitor, partial curve, poor fit].

What about the Potency [1] of the same compound?
Its Potency is inconclusive: 11.7 µM [falling, single point].

What about the Potency [13] of the same compound?
Its Potency is active: 14.6 µM.

What about the Potency [10] of the same compound?
Its Potency is inconclusive: 21.3 µM [falling, partial curve, poor fit].

Which Potency (Papain (Carica papaya)) does the source give for `COc1ccc(CCn2nnnc2C2(c3ccc(C)cc3)CC2)cc1` here?
Its Potency is inconclusive: 2.82 µM [inhibitor, partial curve, poor fit].

Which Potency [7] does the source give for `c1ccc2c(c1)CCC[C@H]2Nc1nc2ccccc2[nH]1` here?
Its Potency is inconclusive: 15 µM [inhibitor, partial curve, poor fit].

Which Potency [14] does the source give for `C[N+]1(CCCCC[N+]2(C)CCCC2)CCCC1` here?
Its Potency is “inactive”.

And the Potency [11]?
The Potency was “inactive”.

With `c1ccc(CN2CCC3(CCCc4ccccc43)CC2)cc1` as the compound, how does the Potency [9] read?
The Potency was “inactive”.

What about the Potency [11] of the same compound?
Its Potency is inconclusive: 0.126 µM [inhibitor, full curve, poor fit].

And the Potency (Papain (Carica papaya))?
Its Potency is “inactive”.

With `Cc1nc2c(OCc3ccccc3)cccn2c1CC#N` as the compound, how does the Potency [15] read?
Its Potency is inconclusive: 60.1 µM [activator, partial curve, poor fit].

With `COc1ccc(C(=O)NCc2cccnc2)cc1C(=O)NCc1cccnc1` as the compound, how does the Potency [5] read?
The Potency was “inactive”.

What about the Potency [16] of the same compound?
The Potency was inconclusive: 5.8 µM [activator, single point].

And the Potency [10]?
The Potency was inconclusive: 19 µM [quencher, side channel, partial curve, poor fit].

For `CCCCCCCCCCCCCCCC(=O)NCC(COP(=O)([O-])OCC[N+](C)(C)C)OCC` (stereo not given), which Potency [1] is on record?
The Potency was “inactive”.

And the Potency [8]?
The Potency was “inactive”.

And the Potency [13]?
Its Potency is inconclusive: 18.4 µM [activator, partial curve].

What does the source list for `CCN(CC)CCCCCCCCOC(=O)c1cc(OC)c(OC)c(OC)c1`?
Potency [2]: inconclusive: 22.4 µM [inhibitor, partial curve, poor fit]; Potency [11]: inconclusive: 1 µM [inhibitor, partial curve, poor fit]; Potency [6]: inactive

For `Oc1ccc(/C=C/c2ccc(/C=C/c3ccc(O)cc3)c(Br)c2)cc1`, which activity change [17] is on record?
Its activity change is inconclusive: -48.9%.

What about the Potency [8] of the same compound?
The Potency was inconclusive: 23.8 µM [inhibitor, single point].

What about the Potency [18] of the same compound?
The Potency was inconclusive: 18.4 µM [activator, single point].

What about the Potency [14] of the same compound?
The Potency was inconclusive: 29.1 µM [activator, single point].

Which results are given for `CC#CCOC(=O)c1c(C)nc2sc3c(c2c1N)CCC(O)C3` (stereo not given)?
Potency [3]: inconclusive: 3.98 µM [activator, partial curve]; Potency [4]: inconclusive: 18.4 µM [inhibitor, single point]; Potency [2]: inconclusive: 31.6 µM [inhibitor, single point]

Which activity change [17] does the source give for `COc1cccc(OC)c1OCCNCC1CSc2ccccc2O1` (stereo not given) here?
The activity change was inconclusive: -62.6%.

And the Potency [7]?
The Potency was “inactive”.

What about the Potency [13] of the same compound?
Its Potency is inconclusive: 8.2 µM [activator, partial curve, poor fit].

What about the Potency [6] of the same compound?
Its Potency is “inactive”.

What about the Potency (Papain (Carica papaya)) of the same compound?
The Potency was inconclusive: 35.5 µM [inhibitor, single point].

With `OC1(c2ccc(Cl)cc2)CCN(Cc2c[nH]c3ccccc23)CC1` as the compound, how does the Potency [4] read?
Its Potency is “inactive”.

With `O=C(O)/C=C/C(O)c1ccc(Cl)cc1` (stereo not given) as the compound, how does the ratio change, both ways [3] read?
The ratio change, both ways was inactive: -8.16%.

What about the activity change (ratio) [15] of the same compound?
The activity change (ratio) was inconclusive: -22.6%.

And the Potency [8]?
The Potency was inconclusive: 26.7 µM [inhibitor, partial curve].

And the Potency [16]?
The Potency was inconclusive: 4.61 µM [activator, single point].

And the Potency [10]?
Its Potency is inconclusive: 37.9 µM [falling, single point].
